25 compounds from PubChem BioAssay AID1259407 (Chemical Carcinogenesis Research Information System (CCRIS), 2018) can be followed below.

Entries after “also recorded” stand apart in the source; their conditions may differ. For part of its entries the source gives two or more results. This list holds those alone. The rule behind the calls is not given here. The source may hold further records. The values listed for one entry differ, and nothing given here explains why; they may come from other doses, times, organisms or constructs than stated. What stands in brackets tells the records apart. The letters are not those of the source and start again with each entry. Brackets with × give the number of equal values in this list.

The series has as its system CCRIS mutagenicity, Ames/micronucleus/aberration tests. In words: CCRIS mutagenicity studies.
Where [1] appears, read: Test System: MOUSE LYMPHOMA, Strain/Indicator: L5178Y (TK+/TK-), Metabolic Activation: NONE, Method: SUSPENSION/PLATE.
Setting [2] is: End Point: IN VITRO CHROMOSOMAL ABERRATIONS, Test System: CHO CELLS, Metabolic Activation: RAT, LIVER, S-9, AROCLOR 1254.
The mark [3] stands for this setting: Test System: AMES SALMONELLA TYPHIMURIUM, Strain/Indicator: TA100, Metabolic Activation: RAT, LIVER, S-9, Method: PREINCUBATION
The mark [4] stands for this setting: End Point: IN VITRO CHROMOSOMAL ABERRATIONS, Test System: CHO CELLS, Metabolic Activation: NONE.
The mark [5] stands for this setting: Test System: AMES SALMONELLA TYPHIMURIUM, Strain/Indicator: TA100, Metabolic Activation: NONE, Method: STANDARD PLATE.
The mark [6] stands for this setting: Test System: AMES SALMONELLA TYPHIMURIUM, Strain/Indicator: TA100, Metabolic Activation: NONE, Method: PREINCUBATION
[7] abbreviates: End Point: In vitro chromosomal aberrations, Test System: Chinese hamster lung (CHL/IU) cells, Metabolic Activation: None.
Setting [8] is: End Point: IN VITRO CHROMOSOMAL ABERRATIONS, Test System: CHL CELLS, Metabolic Activation: NONE.

As for `S=C(NC1CCCCC1)NC1CCCCC1`, the mutagenic call under setting [1] is “active; positive [study A] and inactive; negative [study B]”.
Turning to `CN(C)N=O`, the mutagenic call is “inactive; negative (2×) and active; positive” under setting [2]; “inactive; negative [study A] and active; positive [study B]” (Test System: AMES SALMONELLA TYPHIMURIUM, Strain/Indicator: TA100, Metabolic Activation: MOUSE, LIVER, S-9, Method: PREINCUBATION); “active; positive [study A] and inactive; negative [study B] and inactive; negative [study C]” under setting [3].
Consider `Oc1ccc(Cl)cc1Cl`, for which the mutagenic call under setting [4] was “inactive; negative [study A] and active; positive [study B]”.
As for `NC(=O)NO`, the mutagenic call runs as follows: (Test System: AMES SALMONELLA TYPHIMURIUM, Strain/Indicator: TA98, Metabolic Activation: NONE, Method: STANDARD PLATE) “inactive; negative [study A] and active; positive [study B]”; under setting [5], “inactive; negative [study A] and active; positive [study B]”; (Test System: AMES SALMONELLA TYPHIMURIUM, Strain/Indicator: TA102, Metabolic Activation: NONE, Method: STANDARD PLATE) “inactive; negative [study A] and active; positive [study B]”.
Take `CCC(O)\C=C/C=C\C=C/C=C\C=O` (centres undefined): under setting [6], the mutagenic call was “inactive; negative [0 to 10 µg/plate] and active; positive [0 to 100 µg/plate]”.
As for `Nc1ccc(I)cc1Cl`, the mutagenic call runs as follows: under setting [7], “active; positive (structural changes); also recorded: active; positive (ploidy). toxic at 0.12 mg/ml; also recorded: inactive; negative. weak response is not dose related; toxic at 0.16 mg/ml”; (Test System: Ames Salmonella typhimurium, Strain/Indicator: TA100, Metabolic Activation: Rat, Liver, S9, Sodium phenobarbital and 5,6-benzoflavone (10%), Method: Preincubation) “inactive; negative (2×) and inactive; positive (retest was negative)”; (Test System: Ames Salmonella typhimurium, Strain/Indicator: TA100, Metabolic Activation: Rat, Liver, S9, Sodium phenobarbital and 5,6-benzoflavone (30%), Method: Preincubation) “active; positive (2×) and inactive; negative”.
As to `C=C1C/C(=C/C)C(=O)O[C@@H]2CCN3CC=C(COC(=O)[C@@]1(O)CO)[C@H]23`, under “Test System: UDS MOUSE HEPATOCYTES, Strain/Indicator: THY INCORP, Metabolic Activation: NONE, Method: IN VIVO”, the mutagenic call was “active; positive [study A] and inactive; negative [study B] and active; positive [study B]”.
On to `ON=C1CCCCC1`, for which the mutagenic call (Test System: AMES SALMONELLA TYPHIMURIUM, Strain/Indicator: TA1535, Metabolic Activation: NONE, Method: PREINCUBATION) is “inactive; negative [study A] and active; positive [study B]”.
Turning to `Cl/C=C/CCl`, the mutagenic call under setting [8] is “active; positive (structural and ploidy changes); also recorded: inactive; negative”.
Take `C1O[C@@H]1[C@@H]1CO1`: the mutagenic call reads like this: (Test System: E. COLI, Strain/Indicator: WP2 UVRA, Metabolic Activation: HAMSTER, LIVER, S-9, AROCLOR 1254, Method: PREINCUBATION) “active; positive and inactive; negative”; (Test System: E. COLI, Strain/Indicator: WP2 UVRA, Metabolic Activation: MOUSE, LIVER, S-9, AROCLOR 1254, Method: PREINCUBATION) “active; positive and inactive; negative”; (Test System: E. COLI, Strain/Indicator: WP2 UVRA, Metabolic Activation: MOUSE, LIVER, S-9, Method: PREINCUBATION) “active; positive and inactive; negative”; (Test System: E. COLI, Strain/Indicator: WP2 UVRA, Metabolic Activation: NONE, Method: PREINCUBATION) “active; positive and inactive; negative”.
For `Nc1ccc(Cc2ccc(N)cc2)cc1`, the mutagenic call was “inactive; negative and active; positive; weak response” under setting [4]; “active; positive; weak response (2×) and active; positive” under setting [2]; “inactive; negative; also recorded: inactive; negative; significant increase at 72 hr harvest” (End Point: IN VIVO MICRONUCLEUS, Test System: HEPATOCYTES, Species: RAT, Strain/Sex: FISHER 344 OR SD/MALE, Route: ORAL OR IP).
As for `O=NN1CCCCC1`, the mutagenic call (Test System: AMES SALMONELLA TYPHIMURIUM, Strain/Indicator: TA100, Metabolic Activation: PIG, LIVER, S-9, Method: PREINCUBATION) is “inactive; negative [study A] and active; positive [study B]”; the mutagenic call under setting [3] is “inactive; negative [study A] and active; positive [study B]”; the mutagenic call under setting [1] was “inactive; negative [study A]; also recorded: inactive; negative. reevaluation of results: negative [study B]”; the mutagenic call (Test System: MOUSE LYMPHOMA, Strain/Indicator: L5178Y (TK+/TK-), Metabolic Activation: RAT, LIVER, S-9, AROCLOR 1254, Method: SUSPENSION/PLATE) is “active; positive [study A]; also recorded: active; positive. reevaluation of results: positive [study B]; also recorded: active; positive [study C]”.
Take `C=C1C[C@@]23CC[C@H]4[C@@](C)(CCC[C@@]4(C)C(=O)O[C@@H]4O[C@H](CO)[C@@H](O)[C@H](O)[C@H]4O)[C@@H]2CC[C@]1(O[C@@H]1O[C@H](CO)[C@@H](O)[C@H](O)[C@H]1O[C@@H]1O[C@H](CO)[C@@H](O)[C@H](O)[C@H]1O)C3`: where the note is “Test System: AMES SALMONELLA TYPHIMURIUM, Strain/Indicator: TA98, Metabolic Activation: NONE, Method: PREINCUBATION”, the mutagenic call was “inactive; negative [study A] and active; positive [study B]”.
For `CCCC=O`, the mutagenic call under setting [7] is “active; positive (structural changes and ploidy). ploidy not dose related (2×); also recorded: active; positive (structural changes and ploidy)”.
Consider `O=[N+]([O-])c1ccc2c3c(cccc13)CC2`, for which the mutagenic call (Test System: E. COLI, Strain/Indicator: WP2 UVRA, Metabolic Activation: HAMSTER, LIVER, S-9, AROCLOR 1254, Method: STANDARD PLATE) was “inactive; negative and active; positive”; the mutagenic call (Test System: E. COLI, Strain/Indicator: WP2 UVRA, Metabolic Activation: HAMSTER, LIVER, S-9, Method: STANDARD PLATE) was “inactive; negative and active; positive”; the mutagenic call (Test System: E. COLI, Strain/Indicator: WP2 UVRA, Metabolic Activation: MOUSE, LIVER, S-9, AROCLOR 1254, Method: STANDARD PLATE) is “inactive; negative and active; positive”; the mutagenic call (Test System: E. COLI, Strain/Indicator: WP2 UVRA, Metabolic Activation: MOUSE, LIVER, S-9, Method: STANDARD PLATE) was “inactive; negative and active; positive”; the mutagenic call (Test System: E. COLI, Strain/Indicator: WP2 UVRA, Metabolic Activation: RAT, LIVER, S-9, AROCLOR 1254, Method: STANDARD PLATE) is “inactive; negative and active; positive”.
Regarding `ClCCl`, the mutagenic call under setting [5] is “active; positive [study A] and inactive; negative [study B]”.
As to `COc1cc(N=Nc2ncc([N+](=O)[O-])s2)c(NC(C)=O)cc1N(CCOC(=O)OCC(C)C)CCOC(=O)OCC(C)C`, under setting [8], the mutagenic call is listed as “active; positive (ploidy changes); precipitation occurred at all doses except the lowest; also recorded: active; positive (ploidy changes)”.
Regarding `O=[N+]([O-])c1cccc(Cl)c1F`, the mutagenic call under setting [8] is “active; positive (structural and ploidy changes); also recorded: active; positive (structural changes); authors report equivocal results for ploidy”.
For `Cc1cc2nc3c(=O)[nH]c(=O)nc-3n(C[C@H](O)[C@H](O)[C@H](O)CO)c2cc1C`, the mutagenic call (Test System: AMES SALMONELLA TYPHIMURIUM, Strain/Indicator: TA102, Metabolic Activation: NONE, Method: PREINCUBATION) was “inactive; negative [study A] and inactive; negative [study B] and active; positive [study B]”.
As to `Cc1c2c(cc3ccccc13)-c1ccccc1C1NC21` (centres undefined), the mutagenic call under setting [6] is “active; positive and inactive; negative”.
Take `c1ccc2c(c1)ccc1ncccc12`: the mutagenic call under setting [8] was “active; positive (structural and ploidy changes) (2×); also recorded: inactive; negative; authors report equivocal results for ploidy changes at 0.025 and 0.03”.
Consider `O=NO`, for which the mutagenic call (Test System: E. coli, Strain/Indicator: WP2 uvrA/pKM101, Metabolic Activation: None, Method: Preincubation) was “active; positive. addition of ascorbic acid increased the effect; also recorded: active; positive (2×)”.
With `Clc1ccccc1`, the mutagenic call is, setting by setting: (End Point: In vivo chromosomal aberrations, Test System: Bone marrow, Species: Rat, Strain/Sex: Norway/Male, Route: Intraperitoneal) “active; positive (at highest dose only) and inactive; negative (2×)”; (End Point: In vivo micronucleus, Test System: Bone marrow, Species: Rat, Strain/Sex: Norway/Male, Route: Intraperitoneal) “active; positive (at highest dose only) and inactive; negative (2×)”.
Turning to `C#CC`, the mutagenic call under setting [8] is “active; positive (structural changes) and inactive; negative”.
Regarding `CC(Cl)CCl` (centres undefined), where the note is “End Point: IN VITRO CHROMOSOMAL ABERRATIONS, Test System: CHINESE HAMSTER OVARY CELLS, Metabolic Activation: NONE”, the mutagenic call is “inactive; negative; also recorded: active; positive; precipitation occurred at 1580 ug/ml”.
